Source: US20150361149A1 (FLORIDA STATE UNIVERSITY RESEARCH FOUNDATION, published 2015)

Target: T1, extracellular domain of human FGF receptor-1c (FGFR-1c), ligand-binding immunoglobulin-like domains D2, D3 … (human, UniProt P11362 131-365)
T1 construct: range 131-365; Soluble analyte in all SPR studies; also called soluble FGFR-1c; not shown: N-terminal His tag for purification
T1 sequence (looked up): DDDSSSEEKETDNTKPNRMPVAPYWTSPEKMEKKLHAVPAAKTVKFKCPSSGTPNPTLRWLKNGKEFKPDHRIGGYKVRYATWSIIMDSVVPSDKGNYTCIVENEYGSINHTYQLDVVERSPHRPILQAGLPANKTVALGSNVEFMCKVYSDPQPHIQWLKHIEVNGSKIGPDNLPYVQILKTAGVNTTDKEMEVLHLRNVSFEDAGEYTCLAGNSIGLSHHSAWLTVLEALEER
Assay: SPR (Biacore T-100, 25 C), FGF-1 amine-coupled to CM5 chip, soluble FGFR-1c as analyte 0-256 nM, bivalent analyte model
From the text: FGF-1 and mutant proteins were immobilized as the “ligand” on the SPR sensor chip, and the extracellular domain of human FGFR-1c was used as the soluble “analyte” in all studies. Recombinant FGFR-1c protein was expressed and purified from an insect cell-Baculovirus system as previously described (Lee, J. et al. (2009). Acta Crystallogr., Sect. F. 65, 1097-1104). The FGFR-1c recombinant protein contains the ligand-binding immunoglobulinlike domains D2, D3, and interconnecting linker (residues 131 to 365) and includes an N-terminal His tag for purification purposes. […] The association/dissociation phase was measured by flowing 0-256 nM FGFR-1c analyte over the FGF-1/mutant protein CM5 Sensor Chip at a flow rate of 75 μl/min for 280 s. […] The control flow cell response was subtracted from the ligand sample cell for each receptor injection; the 0 M concentration sensorgram values were subsequently subtracted from the analyte runs, and the resulting sensorgrams were analyzed with the Biacore T100 Evaluation v2.0 software package (GE Healthcare).

Kd: 6.96 nM
B1: human fibroblast growth factor-1 (FGF-1), 140 amino acid form (ligand)
chain: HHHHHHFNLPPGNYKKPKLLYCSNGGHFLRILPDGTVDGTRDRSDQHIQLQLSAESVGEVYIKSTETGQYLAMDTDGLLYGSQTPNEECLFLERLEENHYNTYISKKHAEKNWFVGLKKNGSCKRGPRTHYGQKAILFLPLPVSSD
notes: In SPR it was amine-coupled to the chip; also called acidic FGF
